Laboratory results from the supplement of paper PMC12217912.
The list shows a part of the results. The full chains were built here from the parent and the listed change. Values near 0.05 are background.

B1: TEV protease; numbered along this chain (parent)
chain: MGESLFKGPRDYNPISSSICHLTNESDGHTTSLYGIGFGPFIITNKHLFRRNNGTLVVQSLHGVFKVKDTTTLQQHLVDGRDMIIIRMPKDFPPFPQKLKFREPQREERICLVTTNFQTKSMSSMVSDTSCTFPSGDGIFWKHWIQTKDGQCGSPLVSTRDGFIVGIHSASNFTNTNNYFTSVPKNFMELLTNQEAQQWVSGWRLNADSVLWGGHKVFMVKPEEPFQPVKEATQL

Variants of: B1
Assay: raw area under fraction-flipped curve 0-4 h after induction (AUC4h, not background-subtracted), DNA-recorder readout of cleavage of the substrate (dimensionless); higher = more cleavage of the substrate by the protease variant
Conditions: temperature: 34 °C; time window: 0-4 h after rhamnose induction
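Further: Bxb1 expression induced with 0.2% (w/v) L-rhamnose at OD600 near 0.5, cultures sampled hourly, flipped fraction per protease–substrate barcode pair counted by paired-end Illumina sequencing.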

| Variant | area with substrate ENLYFQK | area with substrate ENLYFQL | area with substrate ENLYFQM | area with substrate ENLYFQN | area with substrate ENLYFQR | area with substrate ENLYFQS | area with substrate ENLYFQT | area with substrate ENLYFQV | area with substrate ENLYFQW | area with substrate ENLYFQY |
| --- | --- | --- | --- | --- | --- | --- | --- | --- | --- | --- |
| Q105F | 0.0606 | 0.0657 | 0.0915 | 0.0739 | 0.0576 | 0.0999 | 0.0604 | 0.0581 | 0.0695 | 0.0683 |
| T176V |  |  | 0.0595 | 0.06 | 0.0571 | 0.0813 |  |  |  |  |
| T176N | 0.04 | 0.0602 |  |  | 0.0632 | 0.077 | 0.0558 |  | 0.0587 |  |
| P104F |  | 0.0683 | 0.0492 | 0.0499 | 0.068 | 0.0527 |  | 0.0422 | 0.048 |  |
| W144N | 0.0698 | 0.0602 | 0.0822 |  | 0.0558 | 0.0838 |  |  |  | 0.0674 |
| P96Y | 0.059 | 0.0671 | 0.12 | 0.0702 |  | 0.106 | 0.0445 | 0.0683 | 0.0693 |  |
| V200S |  |  |  |  |  | 0.0737 |  |  |  |  |
| M88H |  |  | 0.0477 | 0.0398 |  | 0.0574 | 0.0668 |  |  |  |
| M88C | 0.0644 |  |  | 0.0848 |  | 0.102 | 0.0565 | 0.0588 |  |  |
| A232F |  |  | 0.0806 |  |  | 0.102 | 0.0602 | 0.0457 | 0.0704 |  |
| K216I |  | 0.0584 |  |  | 0.049 | 0.091 | 0.0615 | 0.0638 |  |  |
| K216D | 0.0588 |  | 0.0806 |  |  | 0.0764 |  |  |  | 0.0886 |
| K216Q | 0.062 | 0.0324 | 0.105 | 0.0762 |  | 0.111 |  |  | 0.118 | 0.0833 |
| V64R |  |  |  | 0.0578 | 0.0538 | 0.0936 | 0.0666 |  | 0.0729 | 0.0882 |
| T192W |  |  |  |  |  | 0.0942 |  |  |  |  |
| D128N | 0.0736 | 0.0585 | 0.0928 |  | 0.0455 | 0.127 | 0.0756 | 0.0642 | 0.0608 | 0.0851 |
| D128R | 0.0445 | 0.0527 | 0.105 |  | 0.0858 | 0.124 | 0.0581 |  | 0.0737 |  |
| H168N |  | 0.0578 | 0.0605 |  | 0.0597 | 0.0619 | 0.0691 | 0.0761 |  |  |
| H168G | 0.0744 |  | 0.0319 |  | 0.0469 | 0.0612 | 0.0653 |  | 0.0486 |  |
| H168A |  |  | 0.0654 |  | 0.0513 | 0.0662 | 0.0417 | 0.056 | 0.0644 |  |

Same assay, conditions: temperature: 34 °C; time window: 0-4 h after rhamnose induction

| Variant | area with substrate ENLYFQF | area with substrate ENLYFQI | area with substrate ENLYFQP | area with substrate ENLYFQG | area with substrate ENLYFQH | area with substrate ENLYFQQ |
| --- | --- | --- | --- | --- | --- | --- |
| T176V | 0.0621 | 0.0641 | 0.0708 |  |  |  |
| T176N |  | 0.0528 | 0.066 | 0.0896 |  |  |
| P104F |  | 0.042 | 0.0566 |  |  |  |
| W144N |  | 0.0567 | 0.0427 | 0.0838 | 0.0575 | 0.0604 |
| P96Y | 0.0607 | 0.0643 |  |  |  |  |
| M88H |  | 0.0327 |  |  |  |  |
| K216I |  |  | 0.0725 |  |  |  |
| K216Q |  | 0.0551 |  | 0.13 |  |  |
| V64R |  | 0.061 | 0.0619 | 0.0658 |  | 0.0688 |
| T192W |  | 0.0725 |  |  |  |  |
| D128N | 0.0737 |  |  |  |  | 0.0903 |
| D128R | 0.0879 | 0.0671 |  | 0.12 | 0.108 |  |
| H168N |  | 0.0543 |  |  | 0.0636 | 0.0389 |
| H168G | 0.0462 | 0.0471 |  | 0.0782 | 0.0572 |  |
